Source: a compilation of properties of binary mixtures (doi:10.1021/je800965t)
Some of these densities may be calculated back from excess volumes.

Test: xn = mol fraction of the nth substance listed
Conditions: 101 kPa

O + CCCn1cc[n+](C)c1C.F[B-](F)(F)F
x1 = 1
Conditions | mass density [kg/m3]
303.15 K | 996
333.15 K | 983.2
343.15 K | 977.8

CCCn1cc[n+](C)c1C.F[B-](F)(F)F + O
mass density [kg/m3]
Conditions | x2 = 0 | x2 = 0.0939 | x2 = 0.1932 | x2 = 0.2833 | x2 = 0.3944 | x2 = 0.4987 | x2 = 0.5995 | x2 = 0.6985 | x2 = 0.8009 | x2 = 0.8988
298.15 K | 1225 | 1222 | – | 1214 | 1207 | 1200 | 1190 | 1176 | 1154 | 1113
303.15 K | 1222 | 1218 | – | 1210 | – | – | 1186 | 1172 | 1150 | 1110
308.15 K | 1219 | 1215 | 1211 | – | – | 1193 | – | 1168 | 1147 | 1107
313.15 K | 1217 | 1213 | 1209 | 1205 | 1198 | 1191 | 1180 | 1166 | 1145 | 1105
318.15 K | 1216 | – | – | 1203 | 1197 | 1189 | 1179 | 1165 | 1143 | 1103
323.15 K | 1215 | 1211 | 1207 | 1202 | 1196 | 1188 | 1178 | 1164 | 1142 | 1102
333.15 K | 1213 | – | 1204 | 1200 | 1193 | 1185 | – | – | 1138 | 1098
343.15 K | 1212 | – | 1203 | 1198 | 1191 | 1183 | 1172 | 1158 | 1134 | 1094
